Source: the supplement of paper PMC11417369
± gives the standard deviation of the averaged measurements. The list shows a part of the results.

These sequences were tested on PfAP2-G AP2 domain (GST-tagged) (assay: gcPBM binding intensity (ln(normalized median fluorescence intensity)); higher = stronger DNA binding).
Summary of the method: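 Each value is the highest Masliner-normalised natural-log median intensity across replicate spots of either orientation of a probe. The probes were primer-extended double-stranded 36-bp intergenic genomic sequences on an Agilent 4 × 180k array, alongside negative controls, exposed for 1 h to GST-tagged P. falciparum DNA-binding domains expressed in E. coli. Bound protein was picked up with Alexa488 anti-GST antibody and scanned at 488 nm.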

Sequence	gcPBM binding intensity (ln)
TAATAAATAAAATATGCACACAAATATAGGAAACAA [CACACA_site8820]	10.5 ± 0.48
TATATAAAGCATTGTAGTACTACCAATATTTTTTTT [XGTACX_site3523]	11.6 ± 1
AAAAAATATACATATACACACATATGTATATAGAAT [CACACA_site2170]	9.96 ± 0.099
AAAATAAACAATGAACAATAAACAATGAACAATGAA [CACACA_negctrl_site1194]	9.935 ± 0.092
AAAATATTATAAATTTGTACTTATAAATATTGTATA [XGTACX_site8165]	11 ± 0.78
ATATGTTATATGTAATGTACTTTTGATGTATATATT [XGTACX_site8615]	11 ± 0.51
ATATATATATATATATGTACATAATAATATATATTA [XGTACX_site111]	11.3 ± 0.72
TAAAAGGTGTATATAATACACACGTGGGATTAGAAT [CACACA_site610]	10.22 ± 0.057
ATATGTATATTTTTTTGTACGTATTTATGTGTGTGT [XGTACX_site2093]	11.4 ± 0.84
ATATTTTATGTGTTGGTGCACATCTTTATTTAAACT [GTGCAC_site9736]	10.5 ± 0.32
ATATATACAAGTATTTTTTTTTCAAACATTATTTTT [CACACA_negctrl_site1808]	9.84 ± 0.16
CGTTATATATATAAAAGTACAAAAATTAAACATTCC [XGTACX_site4568]	11.1 ± 0.54
ATATGTAAATAAATATGTACTCATTTATTATTTTAT [XGTACX_site8748]	11.5 ± 1
ATATATATAATATAATGTACGTATAATAATATGAGA [XGTACX_site2282]	11.4 ± 0.83
ATTTTTTTTATTTTTTCAATATATATATATATATAT [CACACA_negctrl_site1444]	10.2 ± 0.49
GAAATAGAAATAAAATAGGCATACAATAGAACTAAG [TGCATGCA_negctrl_site537]	10.06 ± 0.057
TTATATATATATAATACACACATAATAATATATTTA [CACACA_site3038]	9.855 ± 0.078
TCTCTATAAATAAATACATGCATATAATAAAGAATT [TGCATGCA_site710]	9.81 ± 0.042
TTATATATATATTATAGTACATATATAATATAGTAA [XGTACX_site6869]	10.9 ± 0.79
ATATATGAGCAAAAATATATAAGATAACACATAAAT [CACACA_negctrl_site167]	9.93 ± 0.12
TTTATCTGATATATTACACACAAAAAAAAAAAAAAA [CACACA_site7637]	9.77 ± 0.36
AATATTATATATATGGGTACTAATTCCTTTAATTTC [XGTACX_site102]	10.8 ± 0.47

Sequence	gcPBM binding intensity (ln)
CCTTATTATTATTTTACACACGTCCTAATAAGAGGA [CACACA_site1319]	10.3 ± 0.27
TATTTAAAAATATATACACACATTTTATATTATTAT [CACACA_site781]	9.78 ± 0.085
AATATATAAATAAATACACACATAAAATAGAAATAT [CACACA_site1663]	9.965 ± 0.007
AAAAACAAAAAAGAAGCACACATATATATATATATA [CACACA_site8779]	10.1 ± 0.61
AAATATCTTTTATATTGTACATATTCCTTATGTGGA [XGTACX_site7638]	10.9 ± 0.52
TATTTTACAAAATAAGGTACGTAAATATATGGTAGG [XGTACX_site2133]	11.2 ± 0.5
ATAATGACTAAATTTAAACACACAAGGGGAGTTTAC [CACACA_site8209]	9.725 ± 0.007
TTTTTTTAAACTGAAAGTACTTATTCCAAGAAAATA [XGTACX_site50]	11 ± 0.71
ATATATATATCAACAACACACGATTAACTAAAAAAA [CACACA_site302]	9.96 ± 0.11
GCATAAGAAATAAATAGTACACACATAGACACACAC [XGTACX_site3095]	11.6 ± 0.85
TATATATATATATACACACACATATATATATATATA [CACACA_site1346]	9.97 ± 0.45
ATAAGATATGTATATACACACATTTATTTACATATA [CACACA_site3263]	9.885 ± 0.021
TACCCATATTAATATGTGCGCATATAAAAGTCAAAC	10.5 ± 0.28
CGCACAAAAATATACACACACACATCTATATTTATT [CACACA_site7675]	10.02 ± 0.028
AAAACAAATGAGTACACACACATAAAAGTTGAAAAT [CACACA_site6238]	11.8 ± 1.3
TAAATAGTTATAAAAGTGCAAAAAAAAAAAAAAAAA [GTGCAC_site9550]	9.79 ± 0.57
ACTCAAAATTATAATTGTACAAATGCTTTGTTTAAT [XGTACX_site3437]	10.6 ± 0.31
TTTTCGGATAATAATTGTACGAAACATTTAAAAAAA [XGTACX_site8898]	10.9 ± 0.66
TTGTAAGAAAAACACACACACACATATATATATATA [CACACA_site795]	9.99 ± 0.26
TATATAATATATATATGTACACATATACATTTTTAT [XGTACX_site2832]	11.5 ± 0.97
TTAATTTCAAGTAGAAGTACTTTTATGATTGTGAGG [XGTACX_site1247]	11.3 ± 0.83
GTGCATAGATGATATACACACAATATAATAGTATGT [CACACA_site5373]	10.05 ± 0.064
